# According to article PMC9911399, “Two distinct binding modes provide the RNA-binding protein RbFox with extraordinary sequence specificity”:
# Residue numbers refer to the chain shown, from its start. Some of the results follow.
# T1: RBFOX1 RRM (Homo sapiens, UniProt Q9NWB1 109-208)
# T1 sequence: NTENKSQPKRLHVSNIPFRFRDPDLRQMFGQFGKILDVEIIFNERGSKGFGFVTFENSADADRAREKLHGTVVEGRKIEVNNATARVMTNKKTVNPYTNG
# B1: CGACGGC (DNA:RNA)
# RNA: GGGAGACCGGAAUUCAGAUUGUCCCGACGGCUUAAAUCCCGUCGUAGCCACCA
# DNA 1: CAATCTGAATTCCGGTCTCCC
# DNA 2: TGGTGGCTACGACGGGATT
# B2: AAAGUGU (DNA:RNA)
# RNA: B1 RNA with C25A, G26A, C28G, G29U, C31U
# DNA 1: CAATCTGAATTCCGGTCTCCC
# DNA 2: TGGTGGCTACGACGGGATT
# B3: GCCUCGG (DNA:RNA)
# RNA: B1 RNA with C25G, G26C, A27C, C28U, G29C, C31G
# DNA 1: CAATCTGAATTCCGGTCTCCC
# DNA 2: TGGTGGCTACGACGGGATT
# B4: CAGAUUG (DNA:RNA)
# RNA: B1 RNA with G26A, A27G, C28A, G29U, G30U, C31G
# DNA 1: CAATCTGAATTCCGGTCTCCC
# DNA 2: TGGTGGCTACGACGGGATT
# B5: AAAGCCA (DNA:RNA)
# RNA: B1 RNA with C25A, G26A, C28G, G29C, G30C, C31A
# DNA 1: CAATCTGAATTCCGGTCTCCC
# DNA 2: TGGTGGCTACGACGGGATT
# B6: GCAAGAG (DNA:RNA)
# RNA: B1 RNA with C25G, G26C, C28A, G30A, C31G
# DNA 1: CAATCTGAATTCCGGTCTCCC
# DNA 2: TGGTGGCTACGACGGGATT
# B7: CAACAAG (DNA:RNA)
# RNA: B1 RNA with G26A, G29A, G30A, C31G
# DNA 1: CAATCTGAATTCCGGTCTCCC
# DNA 2: TGGTGGCTACGACGGGATT
# B8: UUCCACU (DNA:RNA)
# RNA: B1 RNA with C25U, G26U, A27C, G29A, G30C, C31U
# DNA 1: CAATCTGAATTCCGGTCTCCC
# DNA 2: TGGTGGCTACGACGGGATT
# B9: AGCGCUC (DNA:RNA)
# RNA: B1 RNA with C25A, A27C, C28G, G29C, G30U
# DNA 1: CAATCTGAATTCCGGTCTCCC
# DNA 2: TGGTGGCTACGACGGGATT
# B10: CAAUACG (DNA:RNA)
# RNA: B1 RNA with G26A, C28U, G29A, G30C, C31G
# DNA 1: CAATCTGAATTCCGGTCTCCC
# DNA 2: TGGTGGCTACGACGGGATT
# B11: ACCUGCC (DNA:RNA)
# RNA: B1 RNA with C25A, G26C, A27C, C28U, G30C
# DNA 1: CAATCTGAATTCCGGTCTCCC
# DNA 2: TGGTGGCTACGACGGGATT
# B12: GAAGCAU (DNA:RNA)
# RNA: B1 RNA with C25G, G26A, C28G, G29C, G30A, C31U
# DNA 1: CAATCTGAATTCCGGTCTCCC
# DNA 2: TGGTGGCTACGACGGGATT
# B13: CACUCUC (DNA:RNA)
# RNA: B1 RNA with G26A, A27C, C28U, G29C, G30U
# DNA 1: CAATCTGAATTCCGGTCTCCC
# DNA 2: TGGTGGCTACGACGGGATT
# B14: AUGGUAA (DNA:RNA)
# RNA: GGGAGACCGGAAUUCAGAUUGUCCAUGGUAAUUAAAUCCCGUCGUAGCCACCA
# DNA 1: CAATCTGAATTCCGGTCTCCC
# DNA 2: TGGTGGCTACGACGGGATT
# B15: GCUAGAC (DNA:RNA)
# RNA: B1 RNA with C25G, G26C, A27U, C28A, G30A
# DNA 1: CAATCTGAATTCCGGTCTCCC
# DNA 2: TGGTGGCTACGACGGGATT
# B16: UACGGUA (DNA:RNA)
# RNA: B14 RNA with A25U, U26A, G27C, U29G, A30U
# DNA 1: CAATCTGAATTCCGGTCTCCC
# DNA 2: TGGTGGCTACGACGGGATT
# B17: UUUCUUC (DNA:RNA)
# RNA: B14 RNA with A25U, G27U, G28C, A30U, A31C
# DNA 1: CAATCTGAATTCCGGTCTCCC
# DNA 2: TGGTGGCTACGACGGGATT
# B18: GCGGACC (DNA:RNA)
# RNA: B14 RNA with A25G, U26C, U29A, A30C, A31C
# DNA 1: CAATCTGAATTCCGGTCTCCC
# DNA 2: TGGTGGCTACGACGGGATT
# B19: UAUACUA (DNA:RNA)
# RNA: B14 RNA with A25U, U26A, G27U, G28A, U29C, A30U
# DNA 1: CAATCTGAATTCCGGTCTCCC
# DNA 2: TGGTGGCTACGACGGGATT
# B20: GAAGCUA (DNA:RNA)
# RNA: B14 RNA with A25G, U26A, G27A, U29C, A30U
# DNA 1: CAATCTGAATTCCGGTCTCCC
# DNA 2: TGGTGGCTACGACGGGATT
# Molecular target: T1, RBFOX1 RRM
# Assay: EMSA; HiTS-Eq, 1 nM pool, 10 min; buffer printed only for the single-RNA assays: 10 mM Tris pH 7.5, 150 mM NaCl, 3.4 mM EDTA, 0.001% NP-40, 30 C
# Conditions: tags: His6 N-terminal (pET28a); label: 5' 32P
# In short: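 Relative association constants, normalised to the cognate motif, were derived by comparing read counts of each RNA species with those of the control reaction. The RNA sequenced was the free fraction, separated by 8% native PAGE after a 10 min equilibration in 50 µL of 1 nM 5′-radiolabelled RNA (7 randomized nucleotides) with increasing concentrations of purified wild-type or mutant RbFox RRM.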
row,Binder,binding signal
1,B1,0.0116 KA relative to UGCAUGU
2,B2,0.00643 KA relative to UGCAUGU
3,B3,0.0174 KA relative to UGCAUGU
4,B4,0.0105 KA relative to UGCAUGU
5,B5,0.000376 KA relative to UGCAUGU
6,B6,0.014 KA relative to UGCAUGU
7,B7,0.00194 KA relative to UGCAUGU
8,B8,0.00563 KA relative to UGCAUGU
9,B9,0.00941 KA relative to UGCAUGU
10,B10,0.00643 KA relative to UGCAUGU
11,B11,0.00809 KA relative to UGCAUGU
12,B12,0.0152 KA relative to UGCAUGU
13,B13,0.00231 KA relative to UGCAUGU
14,B14,0.0106 KA relative to UGCAUGU
15,B15,0.018 KA relative to UGCAUGU
16,B16,0.0104 KA relative to UGCAUGU
17,B17,0.0115 KA relative to UGCAUGU
18,B18,0.00801 KA relative to UGCAUGU
19,B19,0.00766 KA relative to UGCAUGU
20,B20,0.01 KA relative to UGCAUGU
